Read counts are not given, so values of variants with three or more changes are uncertain.
B1: LINE1-mini (parent)
chain: GGCAGAGCUCAACACAGCGUGGCAAAGUGGCUGUGGCUAGACUGCC

Variants of: B1
Assay: self-cleavage, relative activity (ratio to wild type); higher = more cleavage; in vitro, sequencing; the parent is a self-cleaving ribozyme

| Variant | self-cleavage |
| --- | --- |
| A11C C18G A41U | 0.03 |
| A11C A25G U32G C37A G44A | 0.02 |
| A11C C23G C31A U43C C46A | 0.02 |
| A11C U28A G30C C37A | 0.01 |
| C10U G35U G40A | 0.03 |
| C10U G17C C37G | 0.05 |
| C10U G30U C31G | 0.07 |
| A11C G27C G40C | 0 |
| C10U G27A G36C C46G | 0.08 |
| C10U G17C G22C C42A G44A | 0.01 |
| C10U G36A U38A A41C | 0.03 |
| A11C G22U A24U C46U | 0.01 |
| A11C C37G A39G | 0 |
| C10U G17A G19A G40A | 0.07 |
| A11C A25U G30U A41U U43G | 0 |
| A11C C13U G19U U28A G29C C42U | 0.01 |
| A11C C31U U38A A41C | 0.01 |
| A11C G36A A41U | 0.02 |
| A11C G36A A41C | 0 |
| C10U G21U G33U A41C C42U | 0.02 |
| C10U G19U G22U A41U | 0.24 |

| Variant | self-cleavage |
| --- | --- |
| A11C A16G G30U | 0.01 |
| C10U C23U A39C | 0.1 |
| A11C A14U C15U C18G | 0.02 |
| C10U G29C G30C C37G | 0.02 |
| C10U G19U A25U | 0.05 |
| C10U C23A C46U | 0.36 |
| C10U C23A C46A | 0.66 |
| C10U U38G C45A | 0.02 |
| A11C G17C G30U | 0 |
| C10U G21U G40A | 0.02 |
| C10U G30C C37A C46G | 0.02 |
| A11C C13A C45G | 0.03 |
| A11C G22C G27A | 0.02 |
| A11C C15A A16C G21C | 0 |
| A11C G22A U32G | 0 |
| C10U G19C G30U | 0.09 |
| C10U G19A C42G | 0.01 |
| C10U C31U A39C | 0.03 |
| A11C G30U A39U G44U | 0 |
| A11C G29A G33A U43C C45U | 0.03 |
| C10U U34C C46A | 0.04 |

| Variant | self-cleavage |
| --- | --- |
| C10U C37A A39U G40C | 0.03 |
| A11C C15A C18U G22C | 0 |
| C10U G17C U28A C46U | 0.17 |
| C10U G17U U38A C42U | 0.06 |
| A11C U34C G36A G40A | 0 |
| A11C U38A C42U | 0 |
| A11C G29C A39G | 0 |
| A11C C15A A39G C42U | 0.02 |
| C10U G19U G27A U38G | 0.03 |
| C10U G27A C31U U34A | 0.07 |
| A11C G40U U43G | 0 |
| A11C U20C A26U | 0.01 |
| A11C G35C A41U | 0.01 |
| C10U G22C A39G | 0.06 |
| A11C G21C U34G | 0 |
| A11C A14C G36A U38C | 0.02 |
| A11C G22A G35U U43G | 0.01 |
| C10U G40U A41U | 0.07 |
| A11C C18A G19U C31G U38C | 0.02 |
| C10U G19C G29U | 0.12 |
| C10U G33U C42U | 0.04 |

| Variant | self-cleavage |
| --- | --- |
| C10U U20C G30C | 0.35 |
| A11C G30U C46A | 0 |
| A11C G19U A39U | 0.02 |
| A11C U20G G21U G22C U34A | 0.03 |
| C10U G27A C37G | 0.01 |
| A11C A12U C23A C42U | 0.02 |
| C10U G22C G35A U43G | 0 |
| A11C A26G G40A | 0.04 |
| C10U U28A A39U | 0.2 |
| A11C G27A G36U | 0.01 |
| A11C G21C G29U U32C A41U | 0.01 |
| C10U G22U C42A | 0.06 |
| A11C A14C U34C C45U | 0.02 |
| A11C A16G C18A U28A | 0.02 |
| C10U C23A C31U | 1.15 |
| C10U G17U G35U | 0.03 |
| A11C C15A C18G | 0.02 |
| A11C C13U A14U C23U C31U | 0.01 |
| A11C G30U G33A C37U | 0.03 |
| A11C G17U A39G G44C | 0 |
| C10U U32C G44A | 0.06 |

Source: the RNAGym collection of RNA variant scans (doi:10.7554/elife.90254)
